From US20230372407A1, “METHODS FOR MODULATING TLR4 SIGNALING” (President and Fellows of Harvard College, priority 2020, published 2023) come the findings set out here.

The conditions of the data set: relative to LOS.

Turning to polysaccharide A [PSA], the solubility entry is listed as “enhanced solubility”.
